Assay results taken from the antibiotic and cytotoxicity screens of Wong et al. (2023).
The other results are listed elsewhere or left out.

Key:
[1] = test system: HSkMC (human skeletal muscle cells); experiment: cytotoxicity call (relative viability < 0.9); details: 10 µM
[2] = test system: HepG2; experiment: cytotoxicity call (relative viability < 0.9); details: 10 µM
[3] = test system: S. aureus RN4220; experiment: growth inhibition call (relative growth <= 0.2); details: 50 µM

SMILES	cytotoxicity call [1]	cytotoxicity call [2]	growth inhibition call [3]
CC1(C)C(=O)NCCN1C(=O)Cc1ccccc1	inactive	inactive	inactive
C[C@@H]1CN([C@@H](C)CO)C(=O)Cc2cc(NC(=O)C3CC3)ccc2O[C@@H]1CN(C)C(=O)Nc1ccc2c(c1)OCO2	inactive	inactive	inactive
CO[C@@H]1CN(C)C(=O)c2cc(NC(=O)c3cnccn3)ccc2OC[C@@H](C)N(C(=O)c2cnccn2)C[C@H]1C	inactive	inactive	inactive
C[C@@H]1CN([C@@H](C)CO)C(=O)c2cc(C#Cc3ccccc3F)cnc2O[C@H]1CN(C)C(=O)C1CCOCC1	inactive	inactive	inactive
C[C@H](CO)N1C[C@H](C)[C@H](CN(C)Cc2ccc(C(=O)Nc3ccccc3N)cc2)OCc2cnnn2CCCC1=O	inactive	inactive	inactive
C[C@@H]1CN([C@H](C)CO)C(=O)Cc2cc(NC(=O)Cn3cnnn3)ccc2O[C@@H]1CN(C)S(=O)(=O)c1ccc(Cl)cc1	inactive	inactive	inactive
C[C@@H]1CN([C@@H](C)CO)C(=O)c2cc(NS(=O)(=O)c3ccccc3)ccc2O[C@@H]1CN(C)S(=O)(=O)c1cn(C)cn1	inactive	inactive	inactive
C[C@H](CO)N1C[C@H](C)[C@H](CN(C)Cc2ccc(-c3ccccc3)cc2)Oc2c(NS(=O)(=O)c3cccs3)cccc2C1=O	inactive	inactive	inactive
C[C@H](CO)N1C[C@H](C)[C@H](CN(C)S(=O)(=O)c2cn(C)cn2)Oc2ccc(NC(=O)CCCCCC(=O)Nc3ccccc3N)cc2CC1=O	inactive	inactive	inactive
COc1ccc2c3c(n(c2c1)C)[C@H](CO)N(C[C@]13CCN(CC1)S(=O)(=O)C)C(=O)CN(C)C	inactive	inactive	inactive
COCCOC(=O)N1C(=O)[C@@]2(c3cc(C#Cc4ccc(OC)cc4)ccc31)[C@H](c1ccc(O)cc1)N1[C@H](c3ccccc3)[C@H](c3ccccc3)OC(=O)[C@H]1[C@@H]2C(=O)N1CCCCCCC1	inactive	active	inactive
Cc1cccc(NC(=O)Nc2ccc3c(c2)C(=O)N(C)[C@@H]2CC[C@H](CC(=O)NCc4ccccc4Cl)O[C@H]2CO3)c1	inactive	inactive	inactive
C[C@H]1CN([C@@H](C)CO)C(=O)CCCn2nncc2CO[C@@H]1CN(C)C(=O)Nc1ccccc1C(F)(F)F	inactive	inactive	inactive
C[C@@H]1CCCCO[C@@H](CN(C)Cc2ccccc2)[C@@H](C)CN([C@@H](C)CO)C(=O)c2cc(NS(=O)(=O)c3ccc(F)cc3)ccc2O1	inactive	inactive	inactive
C[C@H](CO)N1C[C@H](C)[C@@H](CN(C)Cc2ccc(C(F)(F)F)cc2)Oc2c(NC(=O)CCCCCC(=O)Nc3ccccc3N)cccc2C1=O	inactive	inactive	inactive
Cc1ccc(S(=O)(=O)Nc2ccc3c(c2)C(=O)N([C@@H](C)CO)C[C@@H](C)[C@@H](CN(C)C(=O)Nc2ccc(F)cc2)OCCCC[C@@H](C)O3)cc1	inactive	inactive	inactive
CN(C)C(=O)C[C@@H]1CC[C@@H]2[C@@H](COc3ccc(NS(=O)(=O)c4cccc(F)c4)cc3C(=O)N2C)O1	inactive	inactive	inactive
Cc1noc(C)c1NC(=O)Nc1ccc2c(c1)C(=O)N([C@H](C)CO)C[C@H](C)[C@@H](CN(C)C(=O)Nc1ccc(F)cc1)OCCCC[C@H](C)O2	inactive	inactive	inactive
O=C(O[C@@H]1Cc2c(O)cc(O)cc2O[C@@H]1c1cc(O)c(O)c(O)c1-c1c([C@H]2Oc3cc(O)cc(O)c3C[C@H]2O)cc(O)c(O)c1O)c1cc(O)c(O)c(O)c1	inactive	inactive	inactive
NC(=O)c1ccc[n+](C2OC(COP(=O)([O-])OP(=O)(O)OCC3OC(n4cnc5c(N)ncnc54)C(O)C3O)C(O)C2O)c1 (configuration not stated)	inactive	inactive	inactive
C[C@@H]1CCCCO[C@@H](CN(C)Cc2ccc(Cl)c(Cl)c2)[C@H](C)CN([C@@H](C)CO)C(=O)c2cc(NC(=O)Nc3ccc(F)cc3)ccc2O1	inactive	inactive	inactive
CC(C)CC#Cc1cnc2c(c1)C(=O)N([C@H](C)CO)C[C@H](C)[C@@H](CN(C)S(=O)(=O)c1ccccc1)O2	inactive	inactive	inactive
C[C@@H]1CCCCO[C@@H](CN(C)S(=O)(=O)c2ccccc2)[C@H](C)CN([C@H](C)CO)C(=O)c2cc(NC(=O)Nc3ccc4c(c3)OCO4)ccc2O1	inactive	inactive	inactive
Cc1ccc(S(=O)(=O)N(C)C[C@@H]2OCCCC[C@@H](C)Oc3ccc(NC(=O)Nc4ccc5c(c4)OCO5)cc3C(=O)N([C@H](C)CO)C[C@H]2C)cc1	inactive	inactive	inactive
CC(C)NC(=O)Nc1ccc2c(c1)C(=O)N([C@@H](C)CO)C[C@@H](C)[C@H](CN(C)S(C)(=O)=O)OCCCC[C@@H](C)O2	inactive	inactive	inactive
C[C@@H]1CN([C@@H](C)CO)C(=O)c2cccc(NS(=O)(=O)c3ccc(F)cc3)c2O[C@@H]1CN(C)S(=O)(=O)c1ccc(F)cc1	inactive	active	inactive
C[C@H]1CN([C@@H](C)CO)C(=O)Cc2cc(NC(=O)NC3CCCCC3)ccc2O[C@H]1CN(C)Cc1ccc(C(F)(F)F)cc1	inactive	active	inactive

SMILES	cytotoxicity call [1]	cytotoxicity call [2]	growth inhibition call [3]
C[C@H](CO)N1C[C@H](C)[C@H](CN(C)C(=O)Nc2ccc(C(F)(F)F)cc2)OCCCC[C@H](C)Oc2ccc(NS(=O)(=O)c3ccccc3)cc2C1=O	inactive	inactive	inactive
N#CCCn1c(CC(N)=O)nc2ccccc21	inactive	inactive	inactive
COc1ccc(NC(=O)Cn2c(=O)c3c(OC)ccnc3n(C)c2=O)c(OC)c1	inactive	inactive	inactive
Cc1oc2ccccc2c1-c1csc(-c2ccccc2)n1	inactive	inactive	inactive
Cc1cc(C(=O)Nc2ccc(S(=O)(=O)O)c3cc(S(=O)(=O)O)cc(S(=O)(=O)O)c23)ccc1NC(=O)c1cccc(NC(=O)Nc2cccc(C(=O)Nc3cc(C(=O)Nc4ccc(S(=O)(=O)O)c5cc(S(=O)(=O)O)cc(S(=O)(=O)O)c45)ccc3C)c2)c1	inactive	inactive	inactive
CC(O)C1C(=O)N2C(C(=O)O)=C(SC3CNC(C(=O)N(C)C)C3)C(C)C12 (configuration not stated)	inactive	inactive	active
CC(C)CC#Cc1ccc2c(c1)O[C@@H](CN(C)C(=O)Cc1cccnc1)[C@@H](C)CN([C@@H](C)CO)S2(=O)=O	inactive	inactive	inactive
C[C@H]1CN([C@@H](C)CO)S(=O)(=O)c2ccc(C#CC3CC3)cc2O[C@H]1CN(C)Cc1cccc(F)c1	inactive	inactive	inactive
Cn1nc(O)c(=O)[nH]c1=S	inactive	inactive	inactive
C[C@@H]1CN([C@H](C)CO)S(=O)(=O)c2ccc(C#CC3(O)CCCC3)cc2O[C@H]1CN(C)C(=O)c1ccncc1	inactive	inactive	inactive
C[C@@H]1CN([C@H](C)CO)C(=O)c2cccc(NC(=O)NC3CCCCC3)c2O[C@H]1CN(C)S(=O)(=O)c1cn(C)cn1	inactive	inactive	inactive
CC(C)CC#Cc1ccc2c(c1)O[C@H](CN(C)CC1CCOCC1)[C@@H](C)CN([C@@H](C)CO)S2(=O)=O	inactive	inactive	inactive
CO[C@@H]1CN(C)C(=O)c2ccc(NC(=O)NC3CCCCC3)cc2OC[C@@H](C)N(CCc2ccccc2)C[C@H]1C	inactive	inactive	inactive
CCS(=O)(=O)NCC[C@H]1CC[C@H](NS(=O)(=O)c2ccccc2C)[C@@H](CO)O1	inactive	inactive	inactive
Cc1noc(C)c1NC(=O)Nc1cccc2c1O[C@H](CN(C)C(=O)Nc1cccc3ccccc13)[C@H](C)CN([C@@H](C)CO)C2=O	inactive	inactive	inactive
CC(=O)c1cccc(C(F)(F)F)c1	inactive	inactive	inactive
Cn1c(N)c(C(=O)c2ccco2)c(=O)n(C)c1=O	inactive	inactive	inactive
C[C@H]1CN([C@@H](C)CO)S(=O)(=O)c2ccc(C#Cc3ccncc3)cc2O[C@@H]1CN(C)C(=O)c1ccncc1	inactive	active	inactive
C[C@@H]1CN([C@@H](C)CO)C(=O)c2cc(NC(=O)Nc3cccc4ccccc34)ccc2O[C@H]1CN(C)Cc1ccc(-c2ccccc2)cc1	inactive	inactive	inactive
C[C@@H]1CN([C@@H](C)CO)C(=O)Cc2cc(NC(=O)c3ccncc3)ccc2O[C@@H]1CN(C)S(C)(=O)=O	inactive	inactive	inactive
C[C@H](CO)N1C[C@H](C)[C@H](CN(C)C(=O)Nc2ccc3c(c2)OCO3)Oc2ccc(NC(=O)CCCN(C)C)cc2C1=O	inactive	inactive	inactive
O=C(NCCO)c1cc(C(=O)NCCO)cc(C(=O)NCCO)c1	inactive	inactive	inactive
Cc1cc2cc3c(C)cc(=O)oc3c(C)c2o1	inactive	inactive	inactive
CC(C)NC(=O)Nc1ccc2c(c1)CC(=O)N([C@@H](C)CO)C[C@H](C)[C@@H](CN(C)C(=O)Nc1ccc3c(c1)OCO3)O2	inactive	inactive	inactive
C[C@@H]1O[C@@H](O[C@H]2[C@H](Oc3cc(O)c4c(=O)cc(-c5ccc(O)cc5)oc4c3)O[C@H](CO)[C@@H](O)[C@@H]2O)[C@H](O)[C@H](O)[C@H]1O	inactive	inactive	inactive
C[C@@H]1CN([C@@H](C)CO)C(=O)Cc2cc(NC(=O)Cc3cn(C)c4ccccc34)ccc2O[C@H]1CN(C)C(=O)Nc1cccc2ccccc12	inactive	inactive	inactive
C[C@@H]1CN([C@H](C)CO)C(=O)c2cc(NC(=O)CCC(F)(F)F)ccc2O[C@@H](C)CCCCO[C@H]1CN(C)S(=O)(=O)c1ccc(F)cc1	inactive	inactive	inactive
